# Experimental data reported in the supplement of paper PMC6746778.
# “And” between values parts separate entries of the source, which are not always exact repeats. Equal values may be shown once. The list shows a part of the results. Most values come without repeats; read them as rough.
# Assays:
# Experiment in all cases: proliferation Z-score within cell line (SRB, relative to all inhibitors screened on that line); triple-negative breast cancer lines and a kinase inhibitor library; SRB is the sulforhodamine B protein stain; higher = less growth inhibition (more resistant)
# Details in all cases: concentration: 1 µM; 4 days
# Bt20 = tested on: Bt20
# Bt549 = tested on: Bt549
# HCC1143 = tested on: HCC1143
# HCC1806 = tested on: HCC1806
# HCC1937 = tested on: HCC1937
# HCC38 = tested on: HCC38
# HCC70 = tested on: HCC70
# Hs578T = tested on: Hs578T
# MDA-MB-231 = tested on: MDA-MB-231
# MDA-MB-435s = tested on: MDA-MB-435s
# MDA-MB-436 = tested on: MDA-MB-436
# MDA-MB-453 = tested on: MDA-MB-453
# MDA-MB-468 = tested on: MDA-MB-468
# SKBR7 = tested on: SKBR7
# SUM1315MO2 = tested on: SUM1315MO2
# SUM149PT = tested on: SUM149PT
# SUM159PT = tested on: SUM159PT
# SUM185PE = tested on: SUM185PE
# SUM229PE = tested on: SUM229PE
# SUM52PE = tested on: SUM52PE
# 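Further: Single-dose primary screen of a 378-member kinase inhibitor library in 96-well plates, with growth read as absorbance of protein-bound SRB dye after TCA fixation.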
SMILES,proliferation Z-score within cell line (Bt20),proliferation Z-score within cell line (Bt549),proliferation Z-score within cell line (HCC1143),proliferation Z-score within cell line (HCC1806),proliferation Z-score within cell line (HCC1937),proliferation Z-score within cell line (HCC38),proliferation Z-score within cell line (HCC70),proliferation Z-score within cell line (Hs578T),proliferation Z-score within cell line (MDA-MB-231),proliferation Z-score within cell line (MDA-MB-435s),proliferation Z-score within cell line (MDA-MB-436),proliferation Z-score within cell line (MDA-MB-453),proliferation Z-score within cell line (MDA-MB-468),proliferation Z-score within cell line (SKBR7),proliferation Z-score within cell line (SUM1315MO2),proliferation Z-score within cell line (SUM149PT),proliferation Z-score within cell line (SUM159PT),proliferation Z-score within cell line (SUM185PE),proliferation Z-score within cell line (SUM229PE),proliferation Z-score within cell line (SUM52PE)
CC1(C)CNc2cc(NC(=O)c3cccnc3NCc3ccncc3)ccc21 [Motesanib Diphosphate (AMG-706)],0.878,0.544,-1.44,1.1,-1.58,0.506,-1.88,0.337,0.901,0.953,-1.45,0.291,0.841,0.024,0.735,0.962,-1.96,1.06,1.67,1.03
Oc1ccc2ccccc2c1SSc1c(O)ccc2ccccc12,0.85,0.403,0.0964,0.563,0.177,0.489,0.0514,0.785,0.721,0.734,0.356,0.571,1.08,0.348,0.756,0.551,0.213,0.486,0.558,0.681
CCS(=O)(=O)Nc1ccc2[nH]c(O)c(C(=Nc3ccc(CN4CCCCC4)cc3)c3ccccc3)c2c1 [Hesperadin],-0.249,-0.734,-0.238,-1.8,-1.36,-0.79,-2.07,-0.912,-1.9,-1.75,-0.782,-0.505,-1.21,-1.41,-1.44,-1.4,-1.2,-1.48,-1.06,-1.42
CN1CCC(CNc2ccc3ncc(-c4cccc(OC(F)(F)F)c4)n3n2)CC1 [SGI-1776 free base],0.578,0.321,-3.25,0.202,-4.1,0.46,-2.74,0.316,0.764,0.578,-3.34,0.682,0.652,0.629,0.211,0.45,0.304,0.616,0.0718,1.16
C[C@@H]1CCN(C(=O)CC#N)C[C@@H]1N(C)c1ncnc2[nH]ccc12,–,0.792 and 0.444,0.749 and 0.316,0.817 and 0.744,0.771 and 0.641,0.69 and 0.431,0.847 and 0.507,0.803 and 0.538,0.889 and 0.42,1.01 and 0.57,0.735 and 0.535,1.08 and 0.767,0.778 and 0.397,0.778 and 0.652,0.944 and 0.437,0.971 and 0.55,0.741 and 0.558,–,0.846 and 0.481,–
O=c1cc(N2CCOCC2)oc2c(-c3ccccc3)cccc12,0.612,0.281,0.561,0.32,0.507,0.513,0.426,0.464,0.776,0.54,0.647,0.36,0.9,-0.674,0.39,0.597,0.312,0.289,0.0689,0.133
Cc1ccc([N+](=O)[O-])cc1S(=O)(=O)N(C)/N=C/c1cnc2ccc(Br)cn12,-3.14,-3.43,-3.72,-1.62,-3.27,-2.81,-3.3,-3.11,-2.64,-2.72,-3.24,-2.1,-2.49,-2.9,-2.85,-3.17,-4.08,-2.11,-3.02,-2.12
CCn1c2ccccc2c2cc(Nc3ccnc(NCCCN4CCOCC4)n3)ccc21,0.94,0.446,0.681,0.494,0.584,0.425,0.59,0.365,0.637,0.497,0.947,0.714,0.53,0.457,0.509,0.541,0.352,1.1,0.725,1.17
NC(=O)c1ccc(N(C(N)=O)c2c(F)cccc2F)nc1-c1ccc(F)cc1F,0.91,0.451,0.226,0.388,0.499,0.366,0.339,0.193,0.436,0.463,-0.0746,0.302,0.859,-1.1,0.961,0.0541,0.258,1.47,0.726,0.83
Cc1[nH]c2ccccc2c1C1=C(NCCc2ccc(F)cc2)C(=O)N(C)C1=O,0.541,0.413,0.457,0.692,0.359,0.278,0.47,0.372,0.56,0.674,0.501,0.668,0.649,1.02,0.469,0.789,0.422,0.859,0.436,0.626
CCN(CC)CCNC(=O)c1c(C)[nH]c(/C=C2\C(=O)Nc3ccc(F)cc32)c1C [Sunitinib Malate],1.14,0.969,0.787,-0.103,0.643,0.198,0.804,0.487,0.338,0.224,0.685,0.658,1.1,0.325,0.155,0.534,0.596,-0.463,0.681,0.189
CNC(=O)c1nn(C)c2c1C(C)(C)Cc1cnc(Nc3ccc(N4CCN(C)CC4)cc3)nc1-2,-0.0243,-0.463,-1.05,-0.515,-0.466,-0.216,0.322,-0.0221,-1.25,-0.923,-1.03,-0.725,-0.411,-0.907,-0.699,-1.29,-0.339,0.119,-0.374,-0.445
NC(=O)c1ncn([C@@H]2O[C@H](CO)[C@@H](O)[C@H]2O)c1N [Acadesine],0.904,0.802,0.783,0.496,0.696,0.586,0.725,0.724,0.7,0.83,0.802,0.852,1.05,0.616,1.8,0.832,0.672,1.33,0.941,1.64
